Results: US20030105295A1 (BETH ISRAEL DEACONESS MEDICAL CENTER, published 2003)

Target: T1, human IL-15Rá subunit (IL-15 receptor alpha) on PHA-activated human PBMCs (human, UniProt Q13261 31-267)
T1 construct: whole, on cells; also called IL-15á chains
Test: flow cytometry, double mutant then biotinylated anti-FLAG Ab and streptavidin-RED670

T1 sequence (Q13261 31-267): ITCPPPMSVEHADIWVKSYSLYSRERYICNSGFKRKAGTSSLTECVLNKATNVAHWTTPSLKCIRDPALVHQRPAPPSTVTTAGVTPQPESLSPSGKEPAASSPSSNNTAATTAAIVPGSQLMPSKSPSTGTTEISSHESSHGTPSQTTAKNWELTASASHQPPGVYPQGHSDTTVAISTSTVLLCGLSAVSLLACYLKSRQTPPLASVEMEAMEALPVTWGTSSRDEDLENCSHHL

B1: FLAG-HMK-IL-15 (Q149D; Q156D) double mutant protein (ligand, not shown: small tags and cut ends)
chain: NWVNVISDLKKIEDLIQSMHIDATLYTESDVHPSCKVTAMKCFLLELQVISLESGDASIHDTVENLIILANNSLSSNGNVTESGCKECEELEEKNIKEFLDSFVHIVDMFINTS
notes: also called FLAG-HMK-IL-15 double mutant; DM
B1: binds.
